Source: article PMC7819943, “Rice protein-binding microarrays: a tool to detect cis-acting elements near promoter regions in rice”
Some of the results follow.

Molecular target: T1, OsWOX13 (Oryza sativa, UniProt Q5QMM3 1-267)
T1 sequence: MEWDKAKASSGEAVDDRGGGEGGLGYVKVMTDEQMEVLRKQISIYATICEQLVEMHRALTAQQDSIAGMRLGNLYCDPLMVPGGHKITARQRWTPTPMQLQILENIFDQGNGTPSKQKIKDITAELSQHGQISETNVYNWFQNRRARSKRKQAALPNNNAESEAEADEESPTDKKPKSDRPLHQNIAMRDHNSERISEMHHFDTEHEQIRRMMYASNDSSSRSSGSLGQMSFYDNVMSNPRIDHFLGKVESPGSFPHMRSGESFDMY
Assay: protein-binding microarray (RPBM); PBS, 2% BSA, 51.3 ng/ul salmon testes DNA, 50 uM zinc acetate, 200 nM TF, 25 C, 1 h; high values mean tight binding
Details: protein: recombinant; tags: N-terminal polyhistidine and DsRed monomer fusion (pET32a); label: CyDye5-dUTP incorporated in the synthesized complementary strand; 3' TTTTT single-stranded linker to array surface; dsDNA, one strand shown
Procedure, shortened: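 Per-feature fluorescence intensity (arbitrary units), read on an Axon 4000B scanner, is the binding signal. Transcription factors carrying an N-terminal polyhistidine tag and DsRed fusion were expressed in E. coli BL21-CodonPlus and purified on Ni–NTA. A custom Agilent array, made double-stranded by primer extension with Cy5-dUTP and blocked with 2% BSA, was incubated with 200 nM protein in PBS, 2% BSA, salmon testes DNA and 50 µM zinc acetate at 25 °C for 1 h and then washed.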

Sequence	binding signal
CAACAATTTATTCTATGTCAGCTTATCATAATCTTGCTTACGGAGTCACCTAGTGCAG	4820 fluorescence intensity (a.u.)
AATTAAATTGTTAACTGGAACTCGCAGGCCAGGTTCTCAGCGGAGTCACCTAGTGCAG	34300 fluorescence intensity (a.u.)
CCAAAATAGATGAGAGTATTATAGACATTAGCCTCCATGCCGGAGTCACCTAGTGCAG	14500 fluorescence intensity (a.u.)
TATGTAATTAGTTTTGTAAGTAGTCTATATTTAATACTCTCGGAGTCACCTAGTGCAG	13100 fluorescence intensity (a.u.)
GATGATTAATCTGAACCGCCTGCCCAAAAGGCACAGAGGTCGGAGTCACCTAGTGCAG	23900 fluorescence intensity (a.u.)
GAAATTGTTAATCCAGCTAGGGATTGTTTATTAGTTTGCCCGGAGTCACCTAGTGCAG	6600 fluorescence intensity (a.u.)
GGACTGGGGCAGGAGGGAGGGGAGGAGCAGGTCGGAGAGTCGGAGTCACCTAGTGCAG	4030 fluorescence intensity (a.u.)
ATGATTTGTTCCCACGACCTCCATTGTACCGAAATAATATCGGAGTCACCTAGTGCAG	6490 fluorescence intensity (a.u.)
ACTTAATAAAATCAAACGTCACAGTTCCGTACTTTTCAGTCGGAGTCACCTAGTGCAG	3370 fluorescence intensity (a.u.)
ACTGCCTAATTGGCCAGACCATGCATGCACTAGTAATACTCGGAGTCACCTAGTGCAG	20600 fluorescence intensity (a.u.)
TCGCTAATTATCAGAGCGGAAGACCGCACGTGACACTGCACGGAGTCACCTAGTGCAG	33500 fluorescence intensity (a.u.)
ATATATATATATATATATATATATGTGCGCGCGCGCTTGCCGGAGTCACCTAGTGCAG	4400 fluorescence intensity (a.u.)
AAAAGAAACGAGTGATTGAGGGAAGTAGACTTGAGCCGTTCGGAGTCACCTAGTGCAG	12300 fluorescence intensity (a.u.)
CGCCAATTATTGAATGAACTAAAGCGAGTCAATTATTACCCGGAGTCACCTAGTGCAG	42300 fluorescence intensity (a.u.)
GAGTAAATTTAGTTGGCGACTTTGCTGGTTATACAAGTCTCGGAGTCACCTAGTGCAG	4680 fluorescence intensity (a.u.)
CCATTCGCGCCGTGATTGGATTCTTCCGATCCTCTTGTATCGGAGTCACCTAGTGCAG	18500 fluorescence intensity (a.u.)
GCCAAATTAACCAACATAAAACACTAGCTCTAGTTAATATCGGAGTCACCTAGTGCAG	4960 fluorescence intensity (a.u.)
TTGATAAACTGTAACTGCTTTCAGTGTACAATTCGCTAACCGGAGTCACCTAGTGCAG	17600 fluorescence intensity (a.u.)
CTAAATTTTAGGAAAGAAACATAAATTCCATGCCATGTTTCGGAGTCACCTAGTGCAG	3810 fluorescence intensity (a.u.)
AGTAATTTATGAGTAAAACTTTTCTTAGCGATTTAGAAGTCGGAGTCACCTAGTGCAG	15000 fluorescence intensity (a.u.)
ATAATTAGTATTTTCATTGTTATTAGATGATAAAACATGACGGAGTCACCTAGTGCAG	9020 fluorescence intensity (a.u.)

Sequence	binding signal
TGCTGGTTGATTGATTGATTGATGGACAAATAGGTAGATGCGGAGTCACCTAGTGCAG	56300 fluorescence intensity (a.u.)
ATATGGATGATTTGTTGGAGTAGGTAAATATATGGAGGAGCGGAGTCACCTAGTGCAG	12400 fluorescence intensity (a.u.)
ATTTAGATGACATGCAAACAGATGAAAATCCACATTCCTCCGGAGTCACCTAGTGCAG	4060 fluorescence intensity (a.u.)
GATTAATTCATTATTAATTATTATACACTTAAAATATAGACGGAGTCACCTAGTGCAG	14000 fluorescence intensity (a.u.)
ACAAACTGAATGCCACCAAAATCGAATCGCTACAAACCCTCGGAGTCACCTAGTGCAG	3610 fluorescence intensity (a.u.)
AGGGTGGGAATGGATTTAAATTGAAGGTATACGTATGGTTCGGAGTCACCTAGTGCAG	13300 fluorescence intensity (a.u.)
AGCTAATACTTAATTAATCACACGCTAATGGACTGCTCCGCGGAGTCACCTAGTGCAG	16700 fluorescence intensity (a.u.)
CCTAATCAGTACCTAAATCAACAAAACTAGTCGTGTAATGCGGAGTCACCTAGTGCAG	5610 fluorescence intensity (a.u.)
TCTCATAAATGTGTCAATCACATTTTCTCCCACATATCGACGGAGTCACCTAGTGCAG	29900 fluorescence intensity (a.u.)
AAAACTGAATTTGAGATGATATGTAACCGTTAGATGGGAGCGGAGTCACCTAGTGCAG	3210 fluorescence intensity (a.u.)
AATGTACCATTAATTGTGTACAACCAATGTACAGATAGGCCGGAGTCACCTAGTGCAG	3770 fluorescence intensity (a.u.)
CCTGGTCTTTGATTGGTCCACGTGGCGCAGCGAGAATTCACGGAGTCACCTAGTGCAG	12400 fluorescence intensity (a.u.)
GAAAATAGACTTATTCCTAAATGTATGATCGGACTTGGATCGGAGTCACCTAGTGCAG	9250 fluorescence intensity (a.u.)
TTGCATGATTGCCTCCAAAATATATACGACCAGCGATCGACGGAGTCACCTAGTGCAG	23700 fluorescence intensity (a.u.)
CAAATTTCGTCGTTAACAGTTTGTCCTGAAAACCTTCCGTCGGAGTCACCTAGTGCAG	7630 fluorescence intensity (a.u.)
TAAATTGAGAATCGAGGATTGACTATGTGTAAATAAATATCGGAGTCACCTAGTGCAG	3630 fluorescence intensity (a.u.)
TCACTAATCAATCTCTCGCGTTCTTGGCCGCCGTCTCCATCGGAGTCACCTAGTGCAG	21300 fluorescence intensity (a.u.)
GCTAATAATTTTGATTTAGAACTAGAGGCTAAGCCAGAGACGGAGTCACCTAGTGCAG	20100 fluorescence intensity (a.u.)
AATTGACTGGTTTAATCTCTGTTCGTACCCAAAATATAGCCGGAGTCACCTAGTGCAG	25000 fluorescence intensity (a.u.)
ATAAATTTTATAGTTTGCCATAGTTTTATCTAATATAGTTCGGAGTCACCTAGTGCAG	3890 fluorescence intensity (a.u.)
GAGAATAGTTATAATTGGTTGATAGGAGAGGGTAGGTAGACGGAGTCACCTAGTGCAG	10400 fluorescence intensity (a.u.)

Sequence	binding signal
ACTTCTAATCACCCTTTCTTTAATGAGGAACATCTAAATACGGAGTCACCTAGTGCAG	5460 fluorescence intensity (a.u.)
TGACCACTTGATGGATTGTTAGAAGTTTCAGTTGGCAGTACGGAGTCACCTAGTGCAG	7400 fluorescence intensity (a.u.)
TTTTGACATTAATCTCTTGGTGTTCTTCTCTTTGTCTGCTCGGAGTCACCTAGTGCAG	5110 fluorescence intensity (a.u.)
TTTAATTAATCCCGTCTCCTCATTCGTCGCCGCCCTCGCACGGAGTCACCTAGTGCAG	26500 fluorescence intensity (a.u.)
GCATGACTGATTGGTCACAAGGTTCTCTGCCCCTTGCCTGCGGAGTCACCTAGTGCAG	37800 fluorescence intensity (a.u.)
ATTTGTATATTAAATTATCAGTTTGTGTACCTCGGCTGATCGGAGTCACCTAGTGCAG	6080 fluorescence intensity (a.u.)
GATTAAAGCATGATTAATTACTAAGTATTAACCATTGTAACGGAGTCACCTAGTGCAG	9280 fluorescence intensity (a.u.)
CAGTGACATGTGTATGATAGATGGGACTAGGTATTAATTGCGGAGTCACCTAGTGCAG	12000 fluorescence intensity (a.u.)
CATTAATTAACTTGACTCCATATTTAACTACTCTGCTTCCCGGAGTCACCTAGTGCAG	30400 fluorescence intensity (a.u.)
ATCTTTAATTAGGATTAGGAAGAAGAGCCGAAGGGACTCGCGGAGTCACCTAGTGCAG	16100 fluorescence intensity (a.u.)
GTTGTACTTTAATTTGATATGATGATGGTTATGTTATCATCGGAGTCACCTAGTGCAG	6410 fluorescence intensity (a.u.)
ATGTAATTTGTTTTATTATTAGACTACGATTAATTTACGCCGGAGTCACCTAGTGCAG	32300 fluorescence intensity (a.u.)
CGGCCCATCGGCTGATTGAAACCATGGGCTGGTATATTCGCGGAGTCACCTAGTGCAG	16800 fluorescence intensity (a.u.)
GACCGGATTGATTTCATAAGAATTCAAATCGAATACTTGTCGGAGTCACCTAGTGCAG	29400 fluorescence intensity (a.u.)
AACGTATTTGGCCCAATTAAGTATATACATATGTAATGCGCGGAGTCACCTAGTGCAG	3420 fluorescence intensity (a.u.)
CTTAAATGAAGCATTTTGTCTATTGGCGTTGTAGTAAGGACGGAGTCACCTAGTGCAG	5220 fluorescence intensity (a.u.)
TCTTTGAATTAGCTGCTAAATTGGGCAAAATTCCGCTTGCCGGAGTCACCTAGTGCAG	8240 fluorescence intensity (a.u.)
TTTTACCGGTAATTGGTGCCTCACATATTGATACTTCCAACGGAGTCACCTAGTGCAG	22600 fluorescence intensity (a.u.)
CTTAATCAAGCTAATGATTTTCTCATTTTACATGTTTTACCGGAGTCACCTAGTGCAG	12500 fluorescence intensity (a.u.)
TTAGATTGGTTATAGATGAATTGGAGCTAGTAGTGGGTTGCGGAGTCACCTAGTGCAG	56200 fluorescence intensity (a.u.)
AAAATTAACACCAATCATAATTTCATAATAATCCATTTCACGGAGTCACCTAGTGCAG	36900 fluorescence intensity (a.u.)

Sequence	binding signal
TAATAATAAATAATCAACAAACACACACGACGTATTGTAACGGAGTCACCTAGTGCAG	4850 fluorescence intensity (a.u.)
GAAAATTGAATATAAATTCCCTGAGTTTGCCGATAAGTTCCGGAGTCACCTAGTGCAG	21800 fluorescence intensity (a.u.)
CCGTGATTAGCGACATTGCTGTGTGCAACGTTTGTTCCTTCGGAGTCACCTAGTGCAG	37600 fluorescence intensity (a.u.)
CATGTAATAGATGGGATGGGCTTGAACACACATGTAATGTCGGAGTCACCTAGTGCAG	8090 fluorescence intensity (a.u.)
CTATAATTTTGTTAGACTTATACCATAGTATGTGGTGTTTCGGAGTCACCTAGTGCAG	20900 fluorescence intensity (a.u.)
CCAAGCACTAATCACGATTAGCCTTCTGACTAATCACACTCGGAGTCACCTAGTGCAG	9300 fluorescence intensity (a.u.)
GTAATGTTGACAGCGTGGATAACGACAAACAATTATTCGGCGGAGTCACCTAGTGCAG	7350 fluorescence intensity (a.u.)
GTCCATGATTAGCCGTAAGTGCTACAGTAACCCACATGTACGGAGTCACCTAGTGCAG	19100 fluorescence intensity (a.u.)
GCGTCCATCTAATCTAATCTAACCACCCTGCACGAATCGCCGGAGTCACCTAGTGCAG	8750 fluorescence intensity (a.u.)
GATCAAATAATATTTGATTTAAGACAAACCCAGACAGCTACGGAGTCACCTAGTGCAG	3520 fluorescence intensity (a.u.)
GTGGGTAATTTGTTGCAAAAGAATATTTCAATTCACTGCACGGAGTCACCTAGTGCAG	13400 fluorescence intensity (a.u.)
TTTGACCGGCTCATCTATCTCGCCTTTTAACTAAACACACCGGAGTCACCTAGTGCAG	3230 fluorescence intensity (a.u.)
TATATATATATCACCAATCAAACCTGGCCAAACTTGCTTGCGGAGTCACCTAGTGCAG	4610 fluorescence intensity (a.u.)
CTCTAAAAGAGCTAATTAGAATAGAGTTAATGACGGTAGTCGGAGTCACCTAGTGCAG	9300 fluorescence intensity (a.u.)
TAAATTTCATGTTATAAATTATATATGAATATAAGGGTTTCGGAGTCACCTAGTGCAG	3690 fluorescence intensity (a.u.)
TCAATTCGTCATATAATAATTGCTTACTATACTATTAGTACGGAGTCACCTAGTGCAG	3550 fluorescence intensity (a.u.)
AGCTAGATTGTTGTACCCATTACTTGAGTGTAAGCTATTACGGAGTCACCTAGTGCAG	8150 fluorescence intensity (a.u.)
CAGATATGCTTAATTGATGGCCAGATGAACAGCTAATAGTCGGAGTCACCTAGTGCAG	47700 fluorescence intensity (a.u.)
TTTGATTGTTGTGCCGTTTGGCTGAACCTGTACTGGTATGCGGAGTCACCTAGTGCAG	44100 fluorescence intensity (a.u.)
ACCTAACACAAATAATGTGACAGCAAGTGGTTAGCAATAACGGAGTCACCTAGTGCAG	3310 fluorescence intensity (a.u.)
GATGCCGCAATTGACTGATGAACTTGCGGCGCAGGCGCAGCGGAGTCACCTAGTGCAG	11600 fluorescence intensity (a.u.)
